# In all, about 110,000 compounds were measured (“z-score”: median about -0.1, highest 2% from about 2 on). This is one part of the list. Activity calls are given as the source filed them.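 How the source made its calls: active means z-score in the third read window above 3 or below -3; inactive means the rest.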
# Biological target: Metabotropic glutamate receptor 8 (Rattus norvegicus) (UniProt P70579)
# Test: rat mGluR8 modulators via GIRK flux, primary screen, cell-based, thallium flux, HTS (AID 488969)
# Settings: HEK293 rat mGluR8, GIRK (G protein-gated inwardly rectifying potassium channel) thallium flux, FluoZin2; at 10 µM; stronger effect = higher value; submaximal glutamate (EC20) added with thallium
# Chain of UniProt P70579 (P70579 whole entry, looked up): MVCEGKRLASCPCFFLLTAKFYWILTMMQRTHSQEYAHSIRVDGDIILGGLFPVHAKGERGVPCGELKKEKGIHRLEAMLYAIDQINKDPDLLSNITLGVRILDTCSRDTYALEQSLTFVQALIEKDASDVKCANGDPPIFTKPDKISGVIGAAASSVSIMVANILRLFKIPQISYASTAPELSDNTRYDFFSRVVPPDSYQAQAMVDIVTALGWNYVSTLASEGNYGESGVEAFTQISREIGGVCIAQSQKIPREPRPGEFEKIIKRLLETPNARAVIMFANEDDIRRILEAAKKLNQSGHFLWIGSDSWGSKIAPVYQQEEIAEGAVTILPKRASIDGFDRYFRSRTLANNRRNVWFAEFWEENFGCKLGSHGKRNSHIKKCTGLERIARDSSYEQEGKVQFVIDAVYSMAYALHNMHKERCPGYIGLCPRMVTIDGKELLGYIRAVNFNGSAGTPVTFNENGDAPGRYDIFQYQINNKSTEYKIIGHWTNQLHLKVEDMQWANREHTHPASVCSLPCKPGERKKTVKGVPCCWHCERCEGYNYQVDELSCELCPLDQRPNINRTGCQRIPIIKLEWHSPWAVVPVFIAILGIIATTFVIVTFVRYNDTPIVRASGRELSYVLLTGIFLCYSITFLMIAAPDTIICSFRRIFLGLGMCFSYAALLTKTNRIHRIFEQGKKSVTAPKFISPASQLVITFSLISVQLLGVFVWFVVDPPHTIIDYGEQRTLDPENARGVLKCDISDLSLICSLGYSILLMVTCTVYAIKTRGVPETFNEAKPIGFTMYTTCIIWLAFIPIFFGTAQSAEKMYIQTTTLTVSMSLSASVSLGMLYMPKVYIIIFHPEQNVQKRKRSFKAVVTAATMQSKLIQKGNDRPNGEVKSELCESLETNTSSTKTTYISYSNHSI
row,SMILES,z-score
1,N#CCSc1nnc(Nc2ccccc2)s1,0.314
2,COc1ccc(NC(=O)CNS(=O)(=O)c2ccc3nc(C)sc3c2)c(OC)c1,-0.348
3,O=C(N/N=C/c1ccc(Br)s1)c1ccccc1[N+](=O)[O-],-0.0331
4,Cc1cc(C)n2cc(CSc3nnc(SCc4cn5c(C)cc(C)nc5n4)s3)nc2n1,-0.116
5,Cc1cc(S(=O)(=O)N2CCN=C2c2ccccc2)ccc1F,0.13
6,O=C(NCc1cn2ccsc2n1)c1c(F)cccc1Cl,-0.416
7,COc1cc(-c2cc(C(=O)O)c3cc4c(cc3n2)OCCO4)cc(OC)c1OC,-0.103
8,COc1ccc(OC)c(NC(=O)C2CC(=O)n3ncnc3N2)c1 (configuration not stated),-0.244
9,Cc1ccc(S(=O)(=O)NCc2ccc(C(=O)N3CCN(c4ccccn4)CC3)cc2)cc1,-2.02
10,O=Cc1cn(-c2ccccc2)nc1-c1cc2c(ccc3ccccc32)oc1=O,-0.427
11,CN(C)c1oc(-c2ccccc2Cl)nc1S(=O)(=O)c1ccccc1,-0.418
12,Cc1ccccc1NC(=O)c1ccc(NS(=O)(=O)c2cc(C(C)(C)C)cc(C)c2C)cc1,-0.0521
13,CC(C)NS(=O)(=O)c1ccc(OCC(=O)NCCC2=CCCCC2)cc1,-0.342
14,O=C(COc1cccc(Oc2ccccc2)c1)Nc1ccc(SC(F)F)cc1,-0.269
15,Cc1ccc(S(=O)(=O)/C(C#N)=C/c2c(N3CC(C)OC(C)C3)nc3c(C)cccn3c2=O)cc1 (configuration not stated),-0.128
16,CCS(=O)(=O)N1CCC(C(=O)NCc2cc(OC)ccc2OC)CC1,-0.0786
17,COc1ccc(Cn2c(-c3ccco3)nc3oc4cc(OC)ccc4c(=O)c3c2=O)cc1,2.22
18,COc1ccc2c(C)cc(SCC(=O)N3CCOCC3)nc2c1,0.247
19,COC(=O)CSc1nc(N2CCCCC2)c2c(c1C#N)CCCC2,-0.221
20,N#Cc1cn(Cc2ccccc2)c2ccccc12,0.308
21,Cc1cccc(C)c1NC(=O)COC(=O)CCc1ccc(S(=O)(=O)N2CCCCC2)cc1,-0.423
22,O=C(O)c1cc(-c2ccco2)[nH]n1,0.209
23,CNC(=O)C1CCN(C(=O)c2ccc(-c3ccccc3)cc2)CC1,0.628

row,SMILES,z-score
1,CCCN(CCC)C(=O)Cn1c(=O)n(CCCCCC(=O)Nc2ccccc2)c(=O)c2sccc21,0.509
2,CC(C)CCNC(=O)COc1ccc2c(c1)C(=O)CC(C)(C)O2,-0.219
3,CCOC(=O)CCCNC(=O)CN1C(=O)NC(CCc2ccccc2)C1=O (configuration not stated),-0.365
4,O=c1oc2ccccc2n1CSc1nc2ccccc2s1,-0.145
5,COC(CNC(=O)c1cccc2c1C(=O)N(Cc1cccnc1)C2)OC,0.0156
6,CC(C)c1nccn1S(=O)(=O)c1cc([N+](=O)[O-])ccc1Cl,-0.182
7,Cc1cccc(NC(=O)CSc2nnc(-c3ccccc3)n2N)c1,-0.339
8,CCc1ccc(NS(=O)(=O)c2ccc3[nH]cc(C(=O)N4CCc5ccccc54)c(=O)c3c2)cc1,-0.329
9,Cc1csc2ncc(C(=O)NCc3ccco3)c(=O)n12,-0.321
10,CC1(C)CC(O)(CCNCc2ccc3c(c2)OCO3)CCO1 (configuration not stated),0.411
11,O=C(NC(Cc1ccc2c(c1)OCO2)C(=O)NC(Cc1ccccc1)C(=O)O)c1ccccc1 (configuration not stated),0.158
12,O=C(OCc1nnc(-c2ccccc2)o1)c1cn(-c2ccccc2)nc1-c1ccccc1,0.118
13,COc1ccc(S(=O)(=O)N2CCC(C)CC2)cc1Br,0.263
14,CCOc1cc(C2CC(=O)NC(SCC)=C2C#N)ccc1O (configuration not stated),-0.154
15,CC(=O)c1cnc(Nc2nc(C)c3cc(C)c(C)cc3n2)nc1C,-0.0182
16,O=C(NC1CCCCCC1)c1c2c(nc3ccccc13)CCN(Cc1ccccc1)C2,0.078
17,O=[N+]([O-])c1ccc(N2CCC(O)CC2)nc1,0.0767
18,Cc1nc(NC2CCCC2)sc1C(=O)N(C)C,-0.165
19,Cc1ccc2nc(NCc3ccccc3)[nH]c2c1,0.56
20,Cc1ccc(S(=O)(=O)NC(CC(=O)n2nc(C)cc2C)c2ccccc2)cc1 (configuration not stated),-0.3
21,Cc1ccc(S(=O)(=O)N(C)c2ccc(C(=O)N3CCCCC3)cc2)cc1,1.91
22,O=C(O)CCC(=O)NNC(=O)c1cccc(Br)c1,-0.13
23,Cc1cc(C)n(-c2nnc(C)n2NS(C)(=O)=O)n1,0.602

row,SMILES,z-score
1,COc1ccc(NC(=O)C2CCCN(S(=O)(=O)c3cnc[nH]3)C2)cc1 (configuration not stated),0.631
2,CCNC(=O)N1CCOCC1,0.19
3,O=C(N/N=C/c1ccc2c(c1)OCO2)/C(=C/c1ccc2c(c1)OCO2)NC(=O)c1ccccc1,-0.321
4,CC(C)C(=O)N(c1cc2sc(=O)oc2c2ccccc12)S(=O)(=O)c1cccs1,-0.122
5,Cc1c(NC(=O)N(C)C)c(=O)n(-c2ccccc2)n1C,-0.0915
6,Cn1cc(S(=O)(=O)N2CCN(C(=O)c3ccco3)CC2)c(=O)n(C)c1=O,-0.13
7,CCC(=O)c1cc2c(cc1NC(=O)c1cccs1)OCCO2,0.603
8,N#Cc1ccccc1Sc1ccccc1C(=O)OCC(=O)NC1CCS(=O)(=O)C1 (configuration not stated),-0.281
9,CCn1c(N2CCN(S(=O)(=O)c3ccccc3C(F)(F)F)CC2)nc2ccccc21,-0.867
10,O=C(Nc1ccc(Cl)c(Cl)c1)Nc1nnc(-c2ccncc2)s1,0.017
11,Cc1cc(C=C2C(=O)c3ccccc3C2=O)c(C)n1C,-0.00835
12,CN1C(=O)C(O)(CC(=O)c2cccnc2)c2ccccc21 (configuration not stated),0.502
13,S=C(NC1CCCCC1)N1CCc2ccccc2C1,-0.267
14,Nc1nnc(CC(=O)N/N=C/c2cccc([N+](=O)[O-])c2)s1,0.264
15,COc1ccc(-c2cc(C#N)nc(N3CCN(c4ccccc4)CC3)n2)cc1,-0.103
16,CCOC(=O)CSc1cc(C(F)(F)F)nc(-c2ccccn2)n1,-0.152
17,COc1cccc(NC(=O)CN2CCN(c3ccccc3F)CC2)c1,-0.247
18,Cc1nnc(-c2ccccc2)c[n+]1[O-],0.0799
19,Cc1ccc(S(=O)(=O)c2cccc(S(=O)(=O)N3CCOCC3)c2)cc1S(=O)(=O)N1CCOCC1,-0.234
20,O=C(O)c1ccccc1C(=O)Nc1n[nH]c(=S)s1,-0.153
21,CCCS(=O)(=O)N1CCC(C(=O)NCCCOC(C)C)CC1,-0.0385
22,CC(C)n1nnnc1SCC(=O)NCc1cccs1,-0.133
23,COc1ccc(N2C(=O)C3CCCN3C2c2cc(OC)c(OC)c(OC)c2)cc1 (configuration not stated),0.741

row,SMILES,z-score
1,CC1CCN(CC(=O)n2c3c(c4ccccc42)CCCC3)CC1,0.363
2,CCCCC(=O)Nc1nc(C)c(-c2csc(Nc3cc(OC)ccc3OC)n2)s1,-0.128
3,O=C(NCc1ccco1)c1cc(C(=O)C2CC2)c[nH]1,0.215
4,CCNc1ccc(C(=O)Nc2ccc3nc(C)sc3c2)cc1[N+](=O)[O-],-0.315
5,C1CN(c2nc3nonc3n3nnnc23)CCO1,-0.322
6,COc1cccc(C(=O)NC2CCN(C(=O)N3CCCCC3)CC2)c1,-0.366
7,Cc1oc(-c2ccccc2)cc1C(N)=O,-0.0153
8,C=CCN(CC(=O)NCC1CCCO1)C(=O)CCC(=O)Nc1cc(C)on1 (configuration not stated),-0.189
9,C#CCSc1nc(-c2cccs2)ccc1C#N,0.366
10,C=CCNC(=O)C1CC(=O)N(c2ccc(OCC(=O)Nc3ccccc3)cc2)C1 (configuration not stated),active: 4.85
11,COc1cc2c(cc1OC)C(C)N(C(=S)Nc1ccccc1)CC2 (configuration not stated),0.0694
12,COc1cccc(-c2noc(C(C)n3nc(C)c([N+](=O)[O-])c3C)n2)c1 (configuration not stated),0.0264
13,O=C(C/C=N/OCc1ccc(Cl)cc1)c1cnc(-c2ccccc2)s1,-0.108
14,O=C(Nc1cccc2ccccc12)N1CCOCC1,-0.271
15,COc1ccccc1NC(=O)CSc1ccc2nnc(-c3ccncc3)n2n1,-0.138
16,N#Cc1ccsc1NC(=O)CN1CCN(c2ccccc2O)CC1,0.137
17,CCOc1ccc(OCCSc2nc3ccccc3c(=O)[nH]2)cc1,-0.398
18,COc1cc(C(=O)NC2CCN(Cc3nnnn3Cc3cccs3)CC2)cc(OC)c1OC,-0.335
19,CCSc1nc(N)c(C#N)c(-c2ccco2)c1C#N,-0.377
20,CC(c1nnnn1C1CCCCC1)N(Cc1ccccc1)Cc1cccnc1 (configuration not stated),1.29
21,Cc1cccc(OCC(=O)N(Cc2cccs2)C2CCS(=O)(=O)C2)c1C (configuration not stated),-0.196
22,N#Cc1c(-c2ccc(Cl)cc2)nc2n(c1=O)CCCS2,0.928
23,COc1cc(/C=N/NC(=O)c2ccoc2C)cc(OC)c1O,-0.108

row,SMILES,z-score
1,Cc1cc(Cl)c(OCCCCN2CCOCC2)c(Br)c1,-0.477
2,O=C1C(=O)N(CCO)C(c2ccccc2)/C1=C(\O)c1ccccc1 (configuration not stated),-0.284
3,CCCN1C(=O)C(NS(=O)(=O)c2ccc(N)cc2)(C(F)(F)F)C(C(=O)OC)=C1C (configuration not stated),0.354
4,Cc1ccc(C(=O)N(Nc2nc3ccccc3s2)C(=O)c2ccc(C)cc2)cc1,0.0589
5,CCn1c(SCC(=O)Nc2ccc3c(c2)OCCO3)nnc1-c1cccs1,-0.338
6,FC(F)(F)c1cnc(-c2cnc3c(-c4ccc(Cl)cc4)cnn3c2)c(Cl)c1,-0.0049
7,O=C(COC(=O)C1(c2ccc(F)cc2)CCCC1)NC1CC1,-0.235
8,O=C(O)CCCC(=O)Nc1ccc(C(=O)N2CCCCC2)cc1,-0.0517
9,O=C(CNC(=O)c1cccs1)NCCN1CCN(Cc2ccccc2)CC1,0.0379
10,CCC1(CC)NC(=O)N(CC(=O)Nc2sc3c(c2C(N)=O)CCC3)C1=O,-0.509
11,COc1ccccc1Oc1ccc2c(c1)C(=O)N(c1cccc3ncccc13)C2=O,0.848
12,COc1cccc(CNC(=O)c2ccc3nc[nH]c3c2)c1,0.306
13,Cc1cc(N2C(=O)CC(Cc3ccccc3)C2=O)no1 (configuration not stated),-0.0586
14,Cc1ccc(C(=O)N/C(=C/c2ccco2)C(=O)Nc2cccc(C)c2)cc1,-0.287
15,COc1ccc(NC(=O)CN2CCN(c3nc(-c4cccc(OC)c4)cs3)CC2)cc1,1.16
16,Cc1ccc(NC(=O)CCSc2nc(C)cc(C)n2)cc1,0.237
17,COc1ccccc1OC(=O)CN1C(=O)c2ccccc2C1=O,-0.417
18,COc1cccc2c(=O)ccoc12,-0.122
19,O=C(Oc1cccc(Oc2ccccc2)c1)N1CCOCC1,-0.663
20,O=C1CC(NCCC2=CCCCC2)C(=O)N1c1cccc(Cl)c1Cl (configuration not stated),-0.0619

# From PubChem BioAssay AID488969 (Vanderbilt High Throughput Screening Facility, 2010)
